The values below come from the supplement of paper PMC11417369.

± gives the standard deviation of the averaged measurements. This is one part of the list.

In the assay the test system is PfAP2-LT AP2 domain (GST-tagged). The experiment in a line: gcPBM binding intensity (ln(normalized median fluorescence intensity)); higher = stronger DNA binding. An outline of the steps: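 For binding intensity, the highest Masliner-normalised natural-log median intensity across replicate spots of either probe orientation was taken. Protein bound to the array was stained with Alexa488 anti-GST antibody and scanned at 488 nm. The protein, GST-tagged P. falciparum DNA-binding domains from E. coli at about 25 μg on average, had been applied for 1 h to an Agilent 4 × 180k array of primer-extended double-stranded 36-bp intergenic genomic probes and negative controls.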
“TGACTTTTTTTTTTTTTTTTTTTTTTTTATCTTTTT [CACACA_negctrl_site481]”: the “gcPBM binding intensity (ln)” value worked out at 8.49 ± 0.58. Take “TTATGATTATAACGTTTTGACATTAGGCATATATAT [CACACA_negctrl_site1396]”: the “gcPBM binding intensity (ln)” value was determined as 8.72 ± 0.47. For “CAGTTATTTTAATGTGGTACACAATTTTAAAATTAT [XGTACX_site8571]” the value was 8.53 ± 0.39. Consider “AAGAAAAAAAAAAAAAAAAAAAAAAAAAATTTATGA [TGCATGCA_negctrl_site294]”, for which the “gcPBM binding intensity (ln)” value came to 8.18 ± 0.64. For “AAATATAATTTGCGATGTACACATATATATTTATTT [XGTACX_site1568]” the value was 8.87 ± 0.41; for “TGAAATGATATATAAACACACATATATAAATATGTA [CACACA_site7616]”, 8.88 ± 0.45; for “TACCTATACCTATACACACACACACGGAAATAAATA [CACACA_site6750]”, 9.84 ± 0.32. For “ATATAAAATGAACATAGTACTTTTTATATATTTTAA [XGTACX_site7461]”, the “gcPBM binding intensity (ln)” value stood at 8.32 ± 0.47. Regarding “AATTTTATAAAAAGTAGTACATATCAAACACCTTGA [XGTACX_site2297]”, the “gcPBM binding intensity (ln)” value stood at 8.71 ± 0.38. In the case of “AATGTGCCCACGCGTACACACAAAAAAAGAAAAAAA [CACACA_site2003]”, the “gcPBM binding intensity (ln)” value was determined as 9.02 ± 0.59. Turning to “TTTTAAAAAAAAAAAAAAAAAATTAAAATAATTCAA [TGCATGCA_negctrl_site69]”, the “gcPBM binding intensity (ln)” value was 7.83 ± 0.47. For the sequence “ATAAAATAATTAATGGGTACATAATTAAATAAAGAG [XGTACX_site3309]”, the “gcPBM binding intensity (ln)” value is 8.86 ± 0.61.

Turning to “CATACATAGAAACACACACACACACCCACCCACAAA [CACACA_site494]”, the “gcPBM binding intensity (ln)” value turned out to be 10.19 ± 0.028. On to “ATTCTATATTTAAATGCATGCACTTTCTATTTTTTT [TGCATGCA_site435]”, for which the “gcPBM binding intensity (ln)” value came out at 9.38 ± 0.47. As to “TTTAATTTGTTATACACACACAAAAAAAATTATAAA [CACACA_site3937]”, the “gcPBM binding intensity (ln)” value was 8.93 ± 0.46. On to “GCTAAAAGTATATGCACACACATATAGATGCACATA [CACACA_site6868]”, for which the “gcPBM binding intensity (ln)” value came out at 9.34 ± 0.33. Regarding “TTTTATTTATCTAATTGTACTCATTCTTTTTTGATG [XGTACX_site2876]”, the “gcPBM binding intensity (ln)” value amounted to 8.72 ± 0.59. For “GACACTTTGAAGGGTACATGCAGAAAAAAAAAAAAA [TGCATGCA_site89]” the value was 8.7 ± 0.55. For “AATACAATTTTTAACACACACACAATAATACAGATA [CACACA_site4823]” the value was 9.61 ± 0.21. For “GTGTAATTTATTGTGTTGCACTTTTTTTTTTTTTTT [GTGCAC_site9644]”, the “gcPBM binding intensity (ln)” value came out at 8.88 ± 0.49.

For “AAGATAGACTCATATGCATGCATTCACATACCAACA [TGCATGCA_site179]”, the “gcPBM binding intensity (ln)” value is 9.07 ± 0.26.

On to “TTAATATAGGAATATGCACACATATATACATACATA [CACACA_site8432]”, for which the “gcPBM binding intensity (ln)” value came to 9.01 ± 0.38.

Consider “GGATAAGATGTATATACACACAATTTAAAAAAATAA [CACACA_site910]”, for which the “gcPBM binding intensity (ln)” value was 9.04 ± 0.53.

On to “CATACACAAGAAAATTCACACACACCCATATATATA [CACACA_site9288]”, for which the “gcPBM binding intensity (ln)” value came out at 9.87 ± 0.23. “TCTTACAAAAAACAAACAGAGAAAAATATAAGGAAA [XGTACX_negctrl_site520]”: the “gcPBM binding intensity (ln)” value was found to be 8.69 ± 0.36.

On to “TTTTTTTTTTTGTATCGTACATTTATAATGTTTATA [XGTACX_site6804]”, for which the “gcPBM binding intensity (ln)” value worked out at 8.73 ± 0.52. For “TTTTTTTCATATAACACACACACAAAAATAATGTGG [CACACA_site3688]”, the “gcPBM binding intensity (ln)” value amounted to 9.32 ± 0.3. With “TAAACATTGTAAAGGAGTACAAAATTTTTTTTATGA [XGTACX_site7757]”, the “gcPBM binding intensity (ln)” value was 8.49 ± 0.54. As for “AATAATAAAAAATACACACACATATATATATATTAC [CACACA_site3464]”, the “gcPBM binding intensity (ln)” value amounted to 9.47 ± 0.42.

For the sequence “ATATATATTTATTTATGTACGAATAAATTTACGAAT [XGTACX_site5190]”, the “gcPBM binding intensity (ln)” value worked out at 8.56 ± 0.4. “AATATCATTATATAAGTGCATTTTTTAAAAGATAAA [GTGCAC_site9479]”: the “gcPBM binding intensity (ln)” value is 8.47 ± 0.45. For “TTAATAGGTCGAAGTAGTACATAAAAATATATATAT [XGTACX_site5960]” the value was 8.86 ± 0.42; for “AAGTTAACAATATGAAGTACAAATGAAAAAAAAAAA [XGTACX_site666]”, 8.87 ± 0.45; for “TTGTTATAGAAGCATTCACACACACCCATACATACA [CACACA_site8414]”, 9.63 ± 0.43. For “ATATATATATATCATAGTACACATATGTGTCTCGTG [XGTACX_site774]” the value was 9.55 ± 0.19. For “ATGTCTTTGAAAAAAAGTACTTAAAATTATAAAAAT [XGTACX_site147]” the value was 8.46 ± 0.52. As to “ACTGTCGTTTTAAAGAGTACATAAAATATTAAATTA [XGTACX_site3589]”, the “gcPBM binding intensity (ln)” value was 8.37 ± 0.5. For “TTCTTTTAAAGGTATACATGCGCATGGATTTTTCAT [TGCATGCA_site223]”, the “gcPBM binding intensity (ln)” value is 8.99 ± 0.29. Take “AATTAAAAAATTATCACACATATATATATATATATA [CACACA_site5789]”: the “gcPBM binding intensity (ln)” value was determined as 9.53 ± 0.23.

Consider “TCAAAGCACAGATACACACACATATATATATATATA [CACACA_site287]”, for which the “gcPBM binding intensity (ln)” value is 10.18 ± 0.014. Regarding “AAAACTATTAATGCAAAAAATAAAATATAATAATAA [XGTACX_negctrl_site524]”, the “gcPBM binding intensity (ln)” value worked out at 8.67 ± 0.38. In the case of “TATATACCACATTGTTGTACGACACATTTACATTTT [XGTACX_site8370]”, the “gcPBM binding intensity (ln)” value turned out to be 9.32 ± 0.4. Regarding “GGAAACACGATATATACACACATATTTATATTTATA [CACACA_site6250]”, the “gcPBM binding intensity (ln)” value was 9.17 ± 0.44. For “ATGTTGTTATAAAGAGTGCAACGTATATGTATCCTT [GTGCAC_site9935]” the value was 8.88 ± 0.42.
